SMILES strings stand for the structures.

The test system of the test is H9-cTnT-eGFP human embryonic stem cell line.

On to `Cc1c[nH]c(-c2cnc(NCCNc3ccc(C#N)cn3)nc2-c2ccc(Cl)cc2Cl)n1` [CHIR99021], for which, where the note is “primary screening, cytokine-free monolayer, H9 cell line (H9-cTnT-eGFP)”, the “differentiation rate of cardiomyocytes (GFP-positive cells)” value is on record as “about 15%”. As to `CO[C@H]1C[C@@H]2CC[C@@H](C)[C@@](O)(O2)C(=O)C(=O)N2CCCC[C@H]2C(=O)O[C@H]([C@H](C)C[C@@H]2CC[C@@H](O)[C@H](OC)C2)CC(=O)[C@H](C)/C=C(\C)[C@@H](O)[C@@H](OC)C(=O)[C@H](C)C[C@H](C)/C=C/C=C/C=C/1C` [Rapamycin], the proportion of cardiomyocytes (rapamycin (10 nM) added at initial stage of cardiac differentiation (day -3 to day 1) with CHIR, read on 30th day) is listed as 93.5±2.1%.

The values are drawn from patent US11788060B2, “Small molecule compound composition that efficiently induces differentiation of human pluripotent stem cells into myocardial cells” (Shanghai Institute of Nutrition and Health, Chinese Academy …, priority 2016, dated 2023).
